Assay results taken from patent publication US7507803B2, “Optimized multi-epitope constructs and uses thereof” (priority 2002, dated 2009).

Test system: PBL from HLA-A1 or -A24 positive normal donors
Experiment: In-vitro primary CTL induction assay
Settings: for +Wells/Total Tested: cultures with positive CTL response of total cultures tested; for Donors +/Total Tested: donors with positive CTL response of total donors tested; for Net IFN-γ: adjusted for control irrelevant peptide
[1] = IFN-γ secretion with peptide/without peptide, positive cultures

Molecule | +Wells/Total Tested | Donors +/Total Tested | Avg. SI [1] | Net IFN-γ (positive cultures) [pg/well] | Avg. SI
CC[C@H](C)[C@H](NC(=O)[C@@H](NC(=O)[C@H](Cc1ccccc1)NC(=O)[C@H](CCCNC(=N)N)NC(=O)[C@H](CCCNC(=N)N)NC(=O)[C@H](CC(C)C)NC(=O)[C@H](CS)NC(=O)[C@H](CCSC)NC(=O)[C@H](Cc1c[nH]c2ccccc12)NC(=O)[C@@H](N)CCCNC(=N)N)[C@@H](C)CC)C(=O)O [env 236] | 0/96 | 0/2 |  |  | 
CC(C)C[C@H](NC(=O)[C@H](CC(N)=O)NC(=O)[C@@H]1CCCN1C(=O)[C@@H](NC(=O)[C@H](C)NC(=O)[C@H](Cc1ccccc1)NC(=O)[C@H](CCCCN)NC(=O)[C@@H]1CCCN1C(=O)[C@H](Cc1c[nH]c2ccccc12)NC(=O)[C@@H](N)CO)C(C)C)C(=O)O [pol 392] | 0/144 | 0/3 |  |  | 
RFSWLSLLVPF [env 332] | 1/96 | 1/2 | 2.5 | 186 | 
LWFHISCLTF [core 101] | 2/96 | 1/2 | 2.8 | 248 | 
LTFGRETVLEY [core 137] | 3/144 | 3/3 |  | 100 | 27.3
C[C@H](N)C(=O)N[C@@H](CO)C(=O)N[C@@H](Cc1ccccc1)C(=O)N[C@@H](CS)C(=O)NCC(=O)N[C@@H](CO)C(=O)N1CCC[C@H]1C(=O)N[C@@H](Cc1ccc(O)cc1)C(=O)O [pol 166] | 3/192 | 2/4 |  | 60 | 
CSCC[C@H](NC(=O)[C@H](CCSC)NC(=O)[C@@H](N)Cc1c[nH]c2ccccc12)C(=O)N[C@@H](Cc1c[nH]c2ccccc12)C(=O)N[C@@H](Cc1ccc(O)cc1)C(=O)N[C@@H](Cc1c[nH]c2ccccc12)C(=O)NCC(=O)N1CCC[C@H]1C(=O)N[C@@H](CO)C(=O)N[C@@H](CC(C)C)C(=O)N[C@@H](Cc1ccc(O)cc1)C(=O)O [env 359] | 1/192 | 1/4 |  | 175 | 
CC(C)C[C@H](NC(=O)[C@H](C)NC(=O)[C@H](CO)NC(=O)[C@H](C)NC(=O)[C@@H](NC(=O)[C@H](CC(=O)O)NC(=O)[C@H](CC(C)C)NC(=O)[C@H](CC(C)C)NC(=O)[C@@H](N)CC(=O)O)[C@@H](C)O)C(=O)N[C@@H](Cc1ccc(O)cc1)C(=O)O [core 419] | 3/144 | 1/3 |  | 67 | 
CC(C)C[C@H](NC(=O)[C@H](CO)NC(=O)[C@@H](N)CC(C)C)C(=O)N[C@@H](CC(=O)O)C(=O)N[C@H](C(=O)N[C@@H](CO)C(=O)N[C@@H](C)C(=O)N[C@@H](C)C(=O)N[C@@H](Cc1ccccc1)C(=O)N[C@@H](Cc1ccc(O)cc1)C(=O)O)C(C)C [pol 415] | 1/192 | 1/4 | 57.0 | 56 | 

Where two headings read alike, the source gives them in different places. Ends that are not written are not given here.
